# Measured values: the supplement of paper PMC6135742
# Where “and” joins values, the source holds several entries; their conditions need not be identical. Equal values may be shown once. Where a name gives a salt, the structure may show the parent alone. ± gives the standard deviation of the averaged measurements. The full ranking holds about 2,600 compounds; the median of “MBP+ mature oligodendrocyte number relative to DMSO vehicle control” is about -0.34, and the highest 2% start at about 13. The list shows a part of the results.
# Tested on: jimpy (Plp1 jimpy) mouse iPSC-derived oligodendrocyte progenitor cells
# Assay: MBP+ mature oligodendrocyte number relative to DMSO vehicle control (SDs above negative control mean); higher = more surviving jimpy oligodendrocytes (rescue)
# Settings: 10 µM; 3 days
# 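Further: 10 µM single dose with 3-day oligodendrocyte differentiation.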
row,Compound,MBP+ mature oligodendrocyte number
1,C=C[C@H]1CN2CC[C@H]1C[C@H]2[C@H](O)c1ccnc2ccc(OC)cc12 [Quinine sulfate],-1.28
2,O=c1n(CCCN2CCN(c3cccc(Cl)c3)CC2)nc2ccccn12 [Trazodone hydrochloride],-1.96
3,O=c1n(CCCN2CCN(c3cccc(Cl)c3)CC2)nc2ccccn12 [Trazodone HCl],1.01
4,O=C(O)c1cc(=O)[nH]c(=O)[nH]1 [Orotic acid (6-Carboxyuracil)],-0.892
5,Cc1ccccc1C(C(=O)NC1CCCCC1)N(C(=O)Cn1ccnc1C)c1cccc(F)c1 (stereo not given),-5
6,Cc1ccc(C(=O)Nc2ccc(CN3CCN(C)CC3)c(C(F)(F)F)c2)cc1C#Cc1cnc2[nH]ncc2c1,-6.27
7,O=C(Nc1ccc(S(=O)(=O)Nc2ccccc2Cl)c(Cl)c1)c1ccccn1,3.45
8,Oc1ccc(-c2nc(-c3ccc(F)cc3)c(-c3ccncc3)[nH]2)cc1,-3.22 and -6.26
9,O=C(NC[C@H](O)CO)c1ccncc1Nc1ccc(I)cc1F,-6.26
10,CCOC(=O)c1cnc2c(cnn2CC)c1NN=C(C)C [Etazolate hydrochloride],1.08
11,C[C@@H]1C[C@H]2[C@@H]3CCC4=CC(=O)C=C[C@]4(C)[C@@]3(Cl)[C@@H](O)C[C@]2(C)[C@@]1(OC(=O)c1ccco1)C(=O)CCl [Mometasone furoate],4.93
12,CCOC(=O)[C@H](CCc1ccccc1)N[C@@H](C)C(=O)N1C(=O)N(C)C[C@H]1C(=O)O [Imidapril HCl],0.675
13,c1coc(CNc2ncnc3[nH]cnc23)c1 [Kinetin],0.451
14,O=C(O)[C@H](CC(=O)N1C[C@H]2CCCC[C@H]2C1)Cc1ccccc1 [Mitiglinide calcium],-1.54
15,C[C@]12CCC3=C4CCC(=O)C=C4CC[C@H]3[C@@H]1CC[C@@]2(O)CC#N [Dienogest],0.72
16,S=c1[nH]c(-c2ccccc2)cn1-c1ccccc1,2.54
17,O=c1oc2cc(O)ccc2s1 [Tioxolone],-1.84
18,COc1cc2ncnc(Nc3cccc(Cl)c3)c2cc1OC [AG-1478 (Tyrphostin AG-1478)],-3.71
19,COc1cc2ncnc(Nc3cccc(Cl)c3)c2cc1OC [Tyrphostin AG 1478],-1.85
20,COc1ccc(C2=N[C@@H](c3ccc(Cl)cc3)[C@@H](c3ccc(Cl)cc3)N2C(=O)N2CCNC(=O)C2)c(OC(C)C)c1 [Nutlin-3],< -6.7
21,CN/C(=N\CCSCc1nc[nH]c1C)NC#N [Cimetidine],-0.0874 ± 0.1
22,"c1ccc(C2CN3CCSC3=N2)cc1 (single isomer, unassigned; (-)) [(-)-Tetramisole]",0.793
23,"c1ccc(C2CN3CCSC3=N2)cc1 (single isomer, unassigned; (-)) [(-)-Tetramisole hydrochloride]",-0.951
24,O=C(O)c1cc2cc(Cc3cccnc3)ccc2o1 [Furegrelate sodium],1.97
25,NC(=O)c1ccc(I)c([N+](=O)[O-])c1 [Iniparib (BSI-201)],-3.64
26,O=C(O)c1cc(/N=N/c2ccc(S(=O)(=O)Nc3ccccn3)cc2)ccc1O [Sulfasalazine],-0.377
27,"O=Nc1ccc2oc(=O)ccc2c1 [6-Nitroso-1,2-benzopyrone]",-1.7

row,Compound,MBP+ mature oligodendrocyte number
1,CCN1C[C@H](C)n2c(c(O)c3c(=O)n(Cc4ccc(F)c(Cl)c4)nc(C(=O)NC)c32)C1=O,2.17
2,CC(=O)c1c(C)c2cnc(Nc3ccc(N4CCNCC4)cn3)nc2n(C2CCCC2)c1=O,< -6.7
3,CC(C)(C)c1ccc(S(=O)(=O)/C=C/C#N)cc1,-1.61
4,C[C@@H](O[C@H]1OCCN(Cc2n[nH]c(=O)[nH]2)[C@H]1c1ccc(F)cc1)c1cc(C(F)(F)F)cc(C(F)(F)F)c1 [Aprepitant],-1.64
5,CCCCN(CCCC)CC(O)c1cc(Cl)cc2c1-c1ccc(Cl)cc1/C2=C/c1ccc(Cl)cc1 (stereo not given) [Lumefantrine],-1.02
6,Cc1cn(-c2cc(NC(=O)c3ccc(C)c(Nc4nccc(-c5cccnc5)n4)c3)cc(C(F)(F)F)c2)cn1 [Nilotinib (AMN-107)],< -6.7
7,NC(=O)c1ccc(-c2nc(-c3ccccn3)c(-c3ccc4c(c3)OCO4)[nH]2)cc1,-4.08
8,CCCNC(=O)Nc1ccc(Oc2ncnc3cc(OC)c(OC)cc23)cc1Cl,-2.99
9,"O=C(O)c1cc(=O)c2c(Cl)cc(Cl)cc2[nH]1 [5,7-Dichlorokynurenic acid]",-0.544
10,O=S(=O)(O)Oc1ccc(C(c2ccc(OS(=O)(=O)O)cc2)c2ccccn2)cc1 [Sodium Picosulfate],1.84
11,CCN(CC)CCOc1ccc(Nc2ncc3cc(-c4c(Cl)cccc4Cl)c(=O)n(C)c3n2)cc1,< -3.85
12,CCn1c(-c2nonc2N)nc2c(C#CC(C)(C)O)ncc(OC[C@H]3CCCNC3)c21,< -6.7
13,NC(=O)CC[C@H](N)C(=O)O [L-Glutamine],-1.01
14,Cc1cc2c(s1)Nc1ccccc1N=C2N1CCN(C)CC1 [Olanzapine],-1.86 ± 0.9
15,CN1C(=O)C(Cc2c[nH]c3ccccc23)NC1=S (stereo not given) [Necrostatin-1],1.71 ± 1.2
16,Cn1cc(/C=C2\C(=O)Nc3cccnc32)c2ccccc21,-3.63
17,Cc1ccc(NC(=O)C2(c3ccc4c(c3)OC(F)(F)O4)CC2)nc1-c1cccc(C(=O)O)c1 [VX-809 (Lumacaftor)],1.69
18,CC(C)OC(=O)C(C)(C)Oc1ccc(C(=O)c2ccc(Cl)cc2)cc1 [Fenofibrate],2.47 ± 0.94
19,COc1ccc(-c2coc3cc(O)ccc3c2=O)cc1 [Formononetin],5.88
20,CN1CCN(S(=O)(=O)c2ccc(-c3cnc(N)c(C(=O)Nc4cccnc4)n3)cc2)CC1,< -6.35
21,Nc1ccc2ncnc(NCCc3ccc(Oc4ccccc4)cc3)c2c1,< -6.35
22,Oc1c(Br)cc(Br)c2cccnc12 [Broxyquinoline],3.03
23,COc1ccc(CC(C)NCC(O)c2ccc(O)c(NC=O)c2)cc1 (stereo not given) [Formoterol],-0.439
24,COc1ccc(CC(C)NCC(O)c2ccc(O)c(NC=O)c2)cc1 (stereo not given) [Formoterol Hemifumarate],1.69
25,O=C(OCCN1CCOCC1)C1(c2ccccc2)CCCCC1,-0.363
26,"Cc1ccc2c(c1)C(=O)C1(O)CCN(c3ccccc3)C1=N2 (single isomer, unassigned; (-)) [(-)-Blebbistatin]",< -6.35
27,CC(C)C[C@H](NC(=O)[C@H](Cc1ccccc1)NC(=O)c1cnccn1)B(O)O [Bortezomib (PS-341)],< -6.7

row,Compound,MBP+ mature oligodendrocyte number
1,CS(=O)(=O)c1ccc(C(=O)Nc2ccc(Cl)c(-c3ccccn3)c2)c(Cl)c1 [Vismodegib (GDC-0449)],2.47
2,CC1(C)CCC(c2ccc(Cl)cc2)=C(CN2CCN(c3ccc(C(=O)NS(=O)(=O)c4ccc(N[C@H](CCN5CCOCC5)CSc5ccccc5)c(S(=O)(=O)C(F)(F)F)c4)cc3)CC2)C1 [ABT-263 (Navitoclax)],-6.61
3,O=C(COc1ccc(C(=O)c2ccccc2)cc1)NC1CCN(Cc2ccccc2)CC1 [AdipoRon],5.37
4,CCOC(=O)N1CCC(=C2c3ccc(Cl)cc3CCc3cccnc32)CC1 [Loratadine],1.87 ± 3.3
5,O=C(NOCC1CC1)c1ccc(F)c(F)c1Nc1ccc(I)cc1Cl,-4.87
6,Nc1nc(F)nc2c1ncn2[C@@H]1O[C@H](COP(=O)(O)O)[C@@H](O)[C@@H]1O [Fludarabine Phosphate],-3.21
7,O=C1/C(=C/c2cccs2)CC/C1=C\c1cccs1,0.0387
8,CC(C)(N)c1ncc(-c2ccc(OC(F)(F)F)cc2)[nH]1,-1.43
9,COCCCC/C(=N\OCCN)c1ccc(C(F)(F)F)cc1 [Fluvoxamine maleate],-1.46 ± 3.2
10,C[C@]12CCC(=O)C=C1CC[C@@H]1[C@@H]2C(=O)C[C@@]2(C)[C@H]1CC[C@]2(O)C(=O)CO [Cortisone],-0.983
11,COC(=O)[C@H](c1ccccc1Cl)N1CCc2sccc2C1 [Clopidogrel],1.42
12,CCN(CC)CCNC(=O)c1ccc(NS(C)(=O)=O)cc1 [Sematilide monohydrochloride monohydrate],-0.439
13,C[C@H](N[C@@H](CCc1ccccc1)C(=O)O)C(=O)N1CCC[C@H]1C(=O)O [Enalaprilat dihydrate],0.574
14,C[C@H](N[C@@H](CCc1ccccc1)C(=O)O)C(=O)N1CCC[C@H]1C(=O)O [Enalaprilat Dihydrate],-0.467
15,NC(=O)N1CCC(CC(=O)N2CCC([C@H]3c4ncc(Br)cc4CCc4cc(Cl)cc(Br)c43)CC2)CC1 [Lonafarnib],-5.61
16,O=C(O)C1CCCNC1 (racemic) [(±)-Nipecotic acid],-1.18
17,O=C(Nc1cc(C(F)(F)F)cc(C(F)(F)F)c1)c1cc(Cl)ccc1O,-5.85
18,CN(C)[C@@H]1C(O)=C(C(N)=O)C(=O)[C@@]2(O)C(O)=C3C(=O)c4c(O)cccc4[C@@](C)(O)[C@H]3C[C@@H]12 [Tetracycline HCl],0.339
19,CNC[C@@H](O)c1ccc(O)c(O)c1 [L-Adrenaline],1.12
20,Cc1ccc(N(CC2=NCCN2)c2cccc(O)c2)cc1 [Phentolamine Mesylate],1.42
21,Cc1ccc(N(CC2=NCCN2)c2cccc(O)c2)cc1 [Phentolamine mesylate],1.93
22,CC(C)(C)c1ccc(/C=C/C(=O)Nc2ccc3c(c2)OCCO3)cc1,1.18
23,CC[n+]1c(/C=C/C=C2/N(C)c3ccccc3C2(C)C)sc2ccccc21,< -4.47
24,CCc1ccc(CCOc2ccc(CC3SC(=O)NC3=O)cc2)nc1 (stereo not given) [Pioglitazone HCl],0.0731
25,CCc1ccc(CCOc2ccc(CC3SC(=O)NC3=O)cc2)nc1 (stereo not given) [Pioglitazone],-1.23
26,Cc1c(Cl)cccc1Nc1ccccc1C(=O)O [Tolfenamic Acid],1.69
